In publication PMC4336329 (PLoS ONE, 2015):
Hit rate of the full screen: of about 310,000 compounds, about 14,000 (4.5%) showed an effect of 50% or more. Effects have a minus sign here. The list shows a part of the results.

These compounds were tested against human ether-à-go-go-related gene (hERG) potassium channel (human, UniProt Q12809) (assay: primary screen, population patch clamp on CHO cells stably expressing hERG).
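Further: peak tail current of the secondary pulse compared with the same well before compound.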

Chain of human ether-à-go-go-related gene (hERG) potassium channel (Q12809 whole entry, looked up): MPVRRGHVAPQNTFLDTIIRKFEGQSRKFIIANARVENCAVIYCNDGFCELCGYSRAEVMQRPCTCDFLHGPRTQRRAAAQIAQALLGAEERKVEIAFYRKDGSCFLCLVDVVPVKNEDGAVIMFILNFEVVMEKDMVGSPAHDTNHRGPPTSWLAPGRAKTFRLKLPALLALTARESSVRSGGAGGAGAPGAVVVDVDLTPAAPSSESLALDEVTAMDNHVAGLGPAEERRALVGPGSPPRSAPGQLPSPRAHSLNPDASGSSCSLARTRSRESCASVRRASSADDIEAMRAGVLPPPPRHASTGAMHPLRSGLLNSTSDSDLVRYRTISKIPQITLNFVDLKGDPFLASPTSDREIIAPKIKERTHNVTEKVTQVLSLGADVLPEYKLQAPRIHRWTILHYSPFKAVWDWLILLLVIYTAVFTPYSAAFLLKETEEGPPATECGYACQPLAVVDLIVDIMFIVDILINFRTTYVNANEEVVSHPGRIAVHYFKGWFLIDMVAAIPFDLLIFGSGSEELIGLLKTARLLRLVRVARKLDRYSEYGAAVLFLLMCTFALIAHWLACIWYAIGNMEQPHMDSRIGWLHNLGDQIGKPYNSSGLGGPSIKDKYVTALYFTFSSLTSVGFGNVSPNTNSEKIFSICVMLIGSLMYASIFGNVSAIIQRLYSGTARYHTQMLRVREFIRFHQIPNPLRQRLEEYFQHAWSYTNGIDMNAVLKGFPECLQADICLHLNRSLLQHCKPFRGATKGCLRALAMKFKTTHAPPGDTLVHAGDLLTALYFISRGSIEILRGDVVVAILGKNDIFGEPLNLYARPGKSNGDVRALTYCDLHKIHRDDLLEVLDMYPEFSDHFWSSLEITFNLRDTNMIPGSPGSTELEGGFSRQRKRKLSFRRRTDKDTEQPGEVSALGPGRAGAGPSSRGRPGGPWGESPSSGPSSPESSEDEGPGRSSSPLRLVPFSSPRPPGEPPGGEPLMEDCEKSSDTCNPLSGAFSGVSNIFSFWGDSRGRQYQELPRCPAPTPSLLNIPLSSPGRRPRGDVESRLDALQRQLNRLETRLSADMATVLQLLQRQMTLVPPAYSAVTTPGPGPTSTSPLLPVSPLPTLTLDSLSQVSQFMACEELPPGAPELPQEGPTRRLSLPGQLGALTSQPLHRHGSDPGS

Row | Compound | hERG current change (%, negative = inhibition) at 10uM
1 | CN(C)C(=S)c1ccc(N(C)C)cc1 | 14.8%
2 | FC(F)(F)c1ccc(NC(=S)NCc2ccccc2)cc1 | 3.15%
3 | COc1ccc(O)c(/C=N/NC(=O)c2ccc(OCc3cccc(Br)c3)cc2)c1 | 9.95%
4 | COc1ccc(C2Nc3ccccc3C(=O)N2Cc2ccco2)cc1COc1ccc(F)cc1 (stereo not drawn) | -1.98%
5 | O=C(Nc1cccc(-c2nn[nH]n2)c1)c1ccc(Cl)s1 | 12.8%
6 | CCOc1ccc(CCNC(=O)Cc2ccc(NC(=O)C3=C(C)OCCS3)cc2)cc1 | 20.9%
7 | CCOc1cc(/C=N/NC(=O)CSc2nncn2C)ccc1OCc1ccccc1 | -16.5%
8 | Cc1ccc(NC(=O)Cn2nnc3ccccc3c2=O)cc1C | 16.1%
9 | COc1ccc(OC)c(CN(CCCN2CCOCC2)S(=O)(=O)c2ccc(NC(C)=O)cc2)c1 | -6.36%
10 | Cc1nc(N2CCN(c3ccc(Cl)cc3)CC2)[nH]c(=O)c1C | 16.3%
11 | CCCn1c(SCC(=O)Nc2ccccc2OC)nnc1-c1ccco1 | -68.5%
12 | Cc1ccc(C2C=C(c3ccccc3OC(F)F)Nc3ncnn32)cc1 (stereo not drawn) | -7.34%
13 | COc1ccccc1C(=O)Nc1sc2c(c1C(=O)NCc1ccco1)CCCC2 | 7.82%
14 | CCCCOC(=O)CSc1nc2ccccc2o1 | 5.27%
15 | COc1ccc(S(=O)(=O)N2CC(=O)Nc3ccccc32)cc1 | -6.04%
16 | Cn1c(=O)n(C)c2cc(S(=O)(=O)O)ccc21 | 4.49%
17 | Cn1c(SCC(=O)NCC2CCCO2)nnc1-c1ccc(S(=O)(=O)N2CCCC2)cc1 (stereo not drawn) | 11.4%
18 | N/C(=N\OC(=O)COc1ccc(Br)cc1Cl)c1ccccn1 | -2.1%
19 | Cc1ccc(/C=N/NC(=O)c2ccoc2C)s1 | -1.92%

Row | Compound | hERG current change (%, negative = inhibition) at 10uM
20 | CC(C)[C@H](NC(=O)C1CCN(S(=O)(=O)c2ccc(F)cc2)CC1)C(=O)NCc1ccco1 | 4.09%
21 | CC(C)(Cc1cccc(CC(C)(C)C(=O)O)c1)C(=O)O | 13.1%
22 | CCOC(=O)c1c(C)[nH]c(C)c1C(=O)COC(=O)CNC(=O)c1ccc(OCC)cc1 | -2.83%
23 | CCNc1nc(NC(C)C)nc(OCCOC(=O)Nc2ccccc2)n1 | -4.72%
24 | O=C(COC(=O)c1ccco1)Nc1ccc(Br)cc1 | -22.8%
25 | CCOC(=O)C1CCN(C(=O)CCC2CCCC2)CC1 | 15.8%
26 | CCN1CCN(Cc2nc3c(c(=O)[nH]c(=O)n3C)n2Cc2ccccc2Cl)CC1 | 14.8%
27 | CCCNC(=O)C(CC)NC(=O)c1ccc(C#N)cc1 (stereo not drawn) | 6.89%
28 | Cc1ccc(CCNC(=O)C2CCC(=O)N2Cc2cccnc2)cc1 (stereo not drawn) | 12.2%
29 | Cn1c(=O)c(C(N)=S)cn(-c2ccccc2)c1=O | 7.08%
30 | O=C(CCN1C(=O)C2CC=C(Cl)CC2C1=O)Nc1ccccc1O (stereo not drawn) | 3.32%
31 | Cc1ccc2[nH]c(=O)c(C(c3nnnn3C3CCCC3)N3CCCc4ccccc43)cc2c1 (stereo not drawn) | -6.05%
32 | Cc1oc(=O)c(NC(=O)c2ccc(Cl)cc2)cc1C(=O)c1ccccc1 | 22.6%
33 | CCCCCc1c(C)nc(NCc2ccccc2)[nH]c1=O | -4.44%
34 | CC(=O)NCCN=C(C)c1sc2ccccc2c1O | 9.46%
35 | Cc1ccc(-c2cc(Cc3ccccc3)c(=O)[nH]n2)cc1 | 11.5%
36 | Cc1cc(C(F)(F)F)cc(NNC(=O)NC(=O)c2ccc(Cl)cc2)n1 | 14.1%
37 | S=c1[nH]c2cc(-c3ccccc3)ccc2o1 | 19.3%
38 | COC(=O)[C@@]12CCCCN1[C@H](c1ccc(-c3ccc(OC)cc3)cc1)[C@@H]1C(=O)N(C)C(=O)[C@@H]12.O=C(O)C(F)(F)F | -8.63%

Row | Compound | hERG current change (%, negative = inhibition) at 10uM
39 | CCNC(=S)Nc1ccccc1-c1ccccc1 | 13.1%
40 | CCC(=O)c1ccc(OCC(=O)OCC(=O)Nc2cccc(S(=O)(=O)N3CCCC3)c2)cc1 | 1.57%
41 | O=C(c1ccc(CS(=O)c2ccccc2Cl)o1)N1CCCCCC1 (stereo not drawn) | 14.5%
42 | Cc1cccc(NC(=O)C2CCCN(S(=O)(=O)c3cccc4nsnc34)C2)c1 (stereo not drawn) | -8.94%
43 | Cc1cc(C)c(C)c(S(=O)(=O)N[C@@H](C)C(=O)OC(C)C(=O)NC(N)=O)c1C (stereo partly drawn) | -16.9%
44 | Cc1ccc(C[n+]2c(-c3ccc(C)cc3)cc(-c3ccc(C)cc3)cc2-c2ccc(C)cc2)cc1.[O-][Cl+3]([O-])([O-])[O-] | -75.6%
45 | S=c1[nH]nc(CSc2nc3ccccc3s2)n1C1CCCCC1 | 6.81%
46 | CCC(C)N(C(=O)CSc1nnc(C)n1C)C1CCS(=O)(=O)C1 (stereo not drawn) | 3.01%
47 | Cc1cc(C(=O)COC(=O)c2ccc(N)c([N+](=O)[O-])c2)c(C)n1Cc1ccc2c(c1)OCO2 | -0.0821%
48 | COc1ccc(C2(C(=O)NC3CCCCC3)CCOCC2)cc1OC | 6.29%
49 | Cc1cc(OCCN2CCCC2)cc(C(C)C)c1.O=C(O)C(=O)O | -0.795%
50 | CC(C)(C)CC(=O)O/N=C(\N)c1ccccn1 | 11.6%
51 | O=C(CCN1CCN(Cc2ccccc2)CC1)Nc1ccccc1Cl | -46.2%
52 | Cc1cc(C2=NNC(=Nc3ccc(S(=O)(=O)N4CCOCC4)cc3)SC2)c(C)n1CC1CCCO1 (stereo not drawn) | 14.1%
53 | Cc1cccc(NC(=O)c2sc(C)nc2C)c1 | -15.6%
54 | CC(C)(C)OC(=O)N1CCC(C(=O)NNC(=O)c2ccc(Cl)cc2Cl)CC1 | 8.15%
55 | CC(=O)Nc1cccc(NC(=O)Nc2cccc3ccccc23)c1 | 17.6%
56 | O=C(NCCn1cccn1)c1ccc(OC2CCN(C(=O)C3CC3)CC2)cc1 | 12%
57 | O=C(O)/C=C/c1cn(-c2ncc(C(F)(F)F)cc2Cl)c2ccccc12 | 16.4%
